Source: paper PMC10668032
Some of the results follow. At the low end of the ranking the order means little.

Biological target: SIX1-Q177R homeodomain (UniProt Q15475)
Experiment: universal protein binding microarray
Settings: Universal all-10-mer PBM (8x60K, AMADID 030236), 300 nM GST-tagged protein, Alexa Fluor 488 anti-GST; buffer, salt, pH and temperature not stated; high values mean tight binding; most listed sequences are background and not binding sites; double strand, one strand shown

Sequence	binding signal [E-score]
GGTAGGCA	-0.0448
TAATACCA	0.0686
TCGGACAA	-0.27
CGTGACAG	0.0961
AGCAGTAC	-0.101
ATGAAAGG	-0.0917
CGGGGAAA	0.0196
ACCGACGG	0.0968
CGGGAACG	-0.322
CACCCCGC	0.337
ACCGAATA	0.155
AGGGAGTA	0.178
GGAAAGAA	-0.113
AGCTGGCA	-0.171
TCGTTCCA	-0.303
AACATCCC	0.0126
GGGCATGA	-0.105
AATAGAGA	-0.343
CACATGGA	0.128
CAATAGTA	-0.0222
ATCCCACG	0.0025
ATTAGAAC	-0.126
CCAGAGCA	0.0859
AGTGAATA	-0.0782
CTAGTGCA	0.0626

Sequence	binding signal [E-score]
ACTTGCCC	-0.0279
GGCGCTCA	-0.19
CGGAACCC	0.234
TTAATCAA	-0.0342
CCGGGTAG	0.169
CACGCGAC	0.26
GTTCGCAA	-0.108
ATGTATAC	0.0564
AACCGGGG	0.127
GATGCCGA	-0.154
GACCTAGC	-0.16
ATCACCAG	-0.0799
CGCCCGAA	-0.0346
GTTGGAAA	-0.0616
CCGGCCTC	-0.148
CCCGCGTC	0.193
CGATCTCC	-0.12
ACGGATGC	-0.136
GGCGTCCC	0.0274
CCTCGGCC	-0.0831
ATGGCTCC	-0.166
ACCTGATC	0.0832
AAAAGCAC	-0.0119
CGGCTAAA	-0.112
CATTAGGG	-0.192

Sequence	binding signal [E-score]
TCATGCGA	-0.0853
CAGACAGA	0.0258
ACCTGACG	0.00449
GATTAGGC	-0.0937
TACAAAGA	-0.195
AAGGGGAG	-0.0209
AGATCGGC	0.102
TCAGGCCA	-0.0625
CCAGTGAG	-0.0897
GCCAGGAC	-0.168
ATTGATAG	-0.0988
GACACAGC	0.17
GAGGTTCC	-0.0623
GATAGGCA	-0.215
GCCACGGC	-0.0357
ACGCCACC	0.194
ATCCAGAT	-0.118
AATCGCGA	-0.0571
GCTCCAGC	-0.0805
CCGAAAAC	-0.0125
TTAACCAA	0.0733
ACAAGCTC	-0.101
GAATGTGC	-0.179
CTAAGGAC	0.0508
ATGTAGTG	0.141

Sequence	binding signal [E-score]
AAGCCCCT	-0.0344
ATTAGCCA	-0.0843
CTAAGCTA	-0.209
ATCTCCGA	-0.0658
AACAAATA	-0.00654
AAACTTGC	-0.126
CTTGCCGA	-0.00545
CGGGAATA	0.181
ATGTCGCG	-0.139
ATGCTGAC	0.0738
ACAAATCG	-0.0604
AAATAAGT	-0.122
GGTGTTTA	0.456
AAGATGTC	-0.104
CTGGTTGA	-0.182
ACGTATCT	-0.0121
AATAATAC	0.00888
TATCTCAA	0.0703
ATCCAAGC	0.0595
AAAAATTT	-0.256
ACCCTGCC	0.0923
AACTCGAT	-0.02
CGGGACCG	-0.158
TGCATTAA	0.113
CAACAAGG	0.0233

Sequence	binding signal [E-score]
TAGTCGGA	-0.0444
AGGTAAAG	-0.0467
AACGAAGC	-0.201
GATTGCAC	0.027
ACGACTCC	0.309
CGAAGAAC	-0.00916
AGATGTTG	-0.258
CTCGGTGC	0.164
CCCAGTTC	-0.0676
CAAACACG	0.32
ACCATGGC	-0.00258
AGCCGGGA	-0.107
GTAACGAA	-0.124
GTCACGAC	0.164
CGAATCTC	-0.0775
CAACACGC	0.363
CGTACCAG	-0.0877
ACACACCA	0.415
ACATCGCA	0.022
AGGTCTGG	-0.119
TTCCTAAA	-0.208
CCAATCGG	0.0357
ACCGTCAG	0.0571
CCGTAGGA	-0.0513
ACTGCGAT	0.117

Sequence	binding signal [E-score]
AATTCCTC	-0.246
ACTCCCAG	0.262
GTATCAAC	0.256
AGGGGCGA	0.0418
TTCATCAA	-0.14
AGTTCTAG	-0.184
ACTCGAAC	0.0178
GATATTCA	-0.289
AGCCGTGC	0.0659
AACCTTTA	-0.148
TAGAGCTA	-0.0216
ATTTACAG	-0.156
CCCTTCCC	0.181
AGTCGCTC	-0.0228
ACGCCATC	-0.0336
GAGCACTA	-0.151
CCAGCGGG	0.0601
ACTGGCTG	0.132
CGCGTGTC	0.414
TCCTCACA	0.142
GAGAACTC	-0.0893
CCCTACCC	0.185
ACGCTGCG	0.0139
AATCATAC	-0.0763
ACCCACAG	0.217

Sequence	binding signal [E-score]
AGTTACTA	-0.168
AATCAATA	-0.0975
CCAACCCC	0.113
CATGAGAC	-0.0249
CGATGAAG	-0.0359
AAATACAC	0.403
GACACCCC	0.487
AAAGGCTA	-0.287
AGAGAGAC	-0.126
GAATACTC	0.0477
CCAATCAC	-0.185
GGAAAATA	-0.0264
AGTGGGAT	0.0827
AGGCTGAT	-0.0609
AAGACACC	0.471
CCAATGAC	0.0886
GTACTGAC	0.172
GACCGTGC	-0.119
ACAATCCT	-0.104
ACTTGGAC	0.0379
GCGGTGGA	0.0097
AGATTTTC	-0.298
AGCAGGTG	0.335
AGCACAAA	-0.19
ACCTTTGA	0.142

Sequence	binding signal [E-score]
AACAGTAC	-0.112
ATCGCACC	0.201
GGGCGTGA	0.138
AGAATCCC	-0.102
AGGACCTG	-0.0705
ATGCCGTG	0.0145
CCCATTGA	-0.0596
AGACTTCA	-0.146
AGCTCTGC	-0.247
GGCTTCGA	-0.205
AGTATCGA	0.118
ACCACGCC	-0.0624
ATGTAGCC	-0.13
CGGAGACC	-0.0715
ATCCTTGG	0.0942
ACGTGTCA	0.412
CCTTGAAA	-0.0723
GCGAGAGC	-0.202
GCAGAGGC	-0.136
CCAAGGGG	0.141
AACCCGAT	0.0773
GAGCGCAC	-0.175
AATCCTGC	-0.0533
AACCCCAA	0.205
AGTTGTGG	0.0218

Sequence	binding signal [E-score]
CCAGTTAA	-0.0324
CCCGTCCG	-0.0323
ATAAGTCC	-0.311
GAACCTGA	-0.074
ACTCCTTC	0.0558
GACAGCGC	-0.228
GTCAATTA	-0.00902
CGAGAGCA	0.0136
CTTGCTTA	-0.0101
CGGCCCCG	-0.236
CATGTCGG	0.0377
GGAGATTA	-0.00214
CGGGTTCC	0.239
ATCTAAGA	-0.328
CGAGATGC	-0.167
GGACCCAC	0.0449
TATCCAGA	-0.0383
ATGGTGCC	0.115
CGGTCATC	-0.106
GGTGTGGA	0.369
AGATTTCG	-0.246
AGTGCCTG	-0.255
CCTACCAA	-0.005
CGTAGCAG	-0.0211
GCCTCTCA	-0.149

Sequence	binding signal [E-score]
ATACCGCA	0.179
CTTGCGGC	-0.153
ATTCAGGA	-0.136
CCCATGCG	0.0262
GAGGTGCC	0.111
GACTACCC	0.137
CATGCATG	-0.00523
CTTCAAGA	-0.0254
CGGGGGGC	0.204
AAACTATT	-0.144
CTCGCCAA	-0.159
AGAATTCA	-0.282
ACACTTTA	0.343
CGAATAAA	-0.139
AATATCGT	-0.0639
ACAGCCCG	-0.148
CATTGCCA	-0.223
CGGGGTGC	0.219
CGAAAGCC	-0.0382
ACAGCGGA	0.0505
CTGGGTCA	0.0597
ACCGATAA	-0.0289
ACCGGACG	0.0703
AACCTGTC	-0.163
CTGACGGC	-0.264

Sequence	binding signal [E-score]
GTAGTCCA	0.013
GAAAATAC	-0.0305
CACGTGGG	0.16
ATTCCCGG	0.0176
ATAAATGA	-0.204
TATACTAA	0.0632
CACATTAA	0.0375
CCACTCTA	0.032
CCACAGTA	0.0136
TAACCAAA	-0.125
CGGTACCA	-0.113
CAAGGATC	0.0468
AGATGTCA	-0.0908
CATCGGAA	-0.264
CTATCTGA	-0.214
AATAGAAG	-0.211
CCCCCGGG	0.195
ACGAAGAT	-0.156
ATACAGGG	-0.0967
AGCCTTAG	-0.184
CTGACGAC	-0.0223
AGTGCCCG	-0.0908
CGCGACGC	-0.0656
GCGGGATA	0.0556
CATGGCAC	0.13

Sequence	binding signal [E-score]
GCATTAAA	-0.084
AAAATGGT	0.0314
AAGCCACT	-0.184
CAAGAGAA	-0.101
ATGTCGCA	-0.0538
CGATCGAG	0.00245
GCCACAGC	-0.0179
AGTCGGGC	0.0596
CTACGCAC	0.042
ACTCCGAT	0.182
ACGTCAAT	-0.171
GGGAGCAC	0.0751
ATTTCGGC	0.00181
GCAGCCGA	-0.218
GTACTCGA	0.19
AGCCTGTG	-0.056
GTGTTCCA	0.361
GAGGCCGC	-0.169
AATTGTTG	-0.114
CCCCCCTC	0.163
CCATAGGA	-0.065
ACATAGGC	-0.124
ACGTTACC	0.0853
CTGTACGC	-0.0547
CTTTATAC	0.104

Sequence	binding signal [E-score]
ATGCTCTG	-0.167
CTGCCTAA	-0.102
CCTTTTTA	-0.00268
ACCAGACC	0.12
ACCTCGAC	0.084
CCTTCAAA	-0.187
CAAACGTG	-0.0446
CGCACAAA	-0.116
AATTGGGG	0.17
CAGCGATC	-0.0427
ATACCTTG	0.0936
CACAGACC	0.0243
CAGCCCGG	-0.0357
CTTGGGGA	0.158
CGATATTA	-0.0548
CGTTGTCA	-0.0756
ACCATGAC	0.0864
AACTGTGC	-0.186
CTTATTCA	-0.165
CTCGTAAA	-0.0661
GGTCACAA	0.0476
AATACCCT	0.171
ATCACCAT	0.0185
AATTGTCG	-0.07
AGCCTCCA	-0.277

Sequence	binding signal [E-score]
CCAAAGAG	-0.0999
AGCCATAG	-0.0626
TCGGGAGA	0.0327
TAGAATAA	0.138
CCCAGAAC	0.0368
GCACGTGA	-0.0782
CTGATAAG	-0.118
CCTGGGGC	0.0284
ACATGGTC	-0.164
GTTGACAA	-0.0933
CCCCGTCA	0.0279
CAGAGCAA	-0.131
ATGAGCGC	-0.2
ACTTATAG	0.1
GCCTTTAC	0.122
GCTGTCAA	-0.241
GAAACGTA	-0.0117
GGGGGGTA	0.341
GTGCCAAC	0.156
